Source: the supplement of paper PMC9588766
Structures can show the parent of a compound that is named as a salt. ± gives the standard deviation of the averaged measurements. In all, about 2,000 compounds were measured (“cell viability relative to DMSO control (compound alone)”: median about 0.98, lowest 2% from about 0.23 on). The list shows a part of the results.

System: PDC-DUC18828
Experiment: cell viability relative to DMSO control (compound alone) (fraction); PDC-DUC18828 is a patient-derived cholangiocarcinoma cell line; higher = less growth inhibition
Settings: 1 µM; 72 h
Protocol: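 Selleck Bioactive library screen in the patient-derived FGFR2-G3BP2 fusion-positive ICC cell line PDC-DUC18828 (500 cells/well). Each compound was tested at 1 uM alone, in triplicate, for 72 h. Viability was read by CellTiter-Glo and normalised to plate DMSO controls.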

Structure (SMILES)	cell viability
COC(=O)N[C@@H](C)CNc1nccc(-c2cn(C(C)C)nc2-c2cc(Cl)cc(NS(C)(=O)=O)c2F)n1	0.947 ± 0.03
CC[C@@H]1C(=O)N(C)c2cnc(Nc3ccc(C(=O)N[C@H]4CC[C@H](N5CCN(CC6CC6)CC5)CC4)cc3OC)nc2N1C(C)C [Volasertib (BI 6727)]	0.328 ± 0.035
CCc1cccc(CC)c1NC(=O)N1Cc2[nH]nc(NC(=O)c3ccc(N4CCN(C)CC4)cc3)c2C1	0.688 ± 0.012
CC#C[C@]1(O)CC[C@H]2[C@@H]3CCC4=CC(=O)CCC4=C3[C@@H](c3ccc(N(C)C)cc3)C[C@@]21C [Mifepristone]	1.03 ± 0.034
O=C(O)CCc1ccc(NCc2cccc(Oc3ccccc3)c2)cc1	1.05 ± 0.067
CCS(=O)(=O)N1CC(CC#N)(n2cc(-c3ncnc4[nH]ccc34)cn2)C1	1.02 ± 0.066
O=C1NCC2(CCN(CCc3ccccc3)CC2)O1 [Fenspiride HCl]	1 ± 0.073
Clc1ccc2c(c1)CCc1cccnc1C2=C1CCNCC1 [Desloratadine]	1.01 ± 0.078
C[C@H]1CO[C@@H]2Cn3cc(C(=O)NCc4ccc(F)cc4F)c(=O)c(O)c3C(=O)N12	1.06 ± 0.017
Nc1nccc(Oc2ccc(NC(=O)c3c[nH]cc(-c4ccc(F)cc4)c3=O)cc2F)c1Cl	0.997 ± 0.052
NC(=O)Nc1cc(-c2cccc(F)c2)sc1C(=O)N[C@H]1CCCNC1	0.524 ± 0.03
O=C(c1ccc(F)cc1)C1CCN(CCn2c(=O)[nH]c3ccccc3c2=O)CC1 [Ketanserin]	1.01 ± 0.049
C[C@H]1[C@H](C)CC[C@]2(C(=O)O)CC[C@]3(C)C(=CC[C@@H]4[C@@]5(C)CC[C@H](O)C(C)(C)[C@@H]5CC[C@]43C)[C@H]12 [Ursolic Acid]	0.954 ± 0.039
CCCCCCCCCCCCCCCC(=O)OC[C@H](O)[C@H]1OC(=O)C(O)=C1O [L-Ascorbyl 6-palmitate]	1.03 ± 0.043
Cc1csc(-c2nnc(Nc3ccc(Oc4ncccc4-c4ccnc(N)n4)cc3)c3ccccc23)c1	0.623 ± 0.045
Nc1nc2c(ncn2COC(CO)CO)c(=O)[nH]1 [Ganciclovir]	0.9796 ± 0.0086
COc1ccc2c(Oc3ccc(NC(=O)c4c(C)n(CC(C)(C)O)n(-c5ccccc5)c4=O)nc3)ccnc2c1	0.9952 ± 0.0074
COc1c(C)cnc(Cn2cnc3c(Cl)nc(N)nc32)c1C	0.401 ± 0.04
c1ccc2c(CCNc3ccc(Nc4ccncc4)cc3)c[nH]c2c1	0.931 ± 0.024
NCCCCCC(=O)O [(6-)ε-Aminocaproic acid]	0.997 ± 0.032
CC(C)CCNC(=O)[C@H](CC(C)C)NC(=O)[C@H]1O[C@@H]1C(=O)O [Loxistatin Acid (E-64C)]	1.07 ± 0.03
Cc1nc2c([nH]1)-c1ccccc1N(C(=O)c1ccc(NC(=O)c3ccccc3-c3ccccc3)cc1)CC2 [Conivaptan HCl]	1.08 ± 0.022
Cn1ncnc1[C@H]1c2n[nH]c(=O)c3cc(F)cc(c23)N[C@@H]1c1ccc(F)cc1	0.5 ± 0.018
Cc1cnc(Nc2ccc(OCCN3CCCC3)cc2)nc1Nc1cccc(S(=O)(=O)NC(C)(C)C)c1	0.857 ± 0.014
O=C(Cc1ccccc1)Nc1nnc(CCSCCc2nnc(NC(=O)Cc3ccccc3)s2)s1	0.96 ± 0.046

Structure (SMILES)	cell viability
COc1cc(-c2ncn(/C=C\C(=O)OC(C)C)n2)cc(C(F)(F)F)c1	0.395 ± 0.037
COc1ccc(-c2nc(N3CCOCC3)c3sc(CN(C)c4ncc(C(=O)NO)cn4)cc3n2)cn1	0.0525 ± 0.0074
COc1ccc(Cl)c(Nc2nc3ccccc3nc2NS(=O)(=O)c2cccc(NC(=O)C(C)(C)N)c2)c1 [Pilaralisib (XL147)]	0.858 ± 0.042
CCCNC(=O)NS(=O)(=O)c1ccc(Cl)cc1 [Chlorpropamide]	1.12 ± 0.028
C[C@]12C=CC(=O)N[C@@H]1CC[C@@H]1[C@@H]2CC[C@]2(C)[C@@H](C(=O)Nc3cc(C(F)(F)F)ccc3C(F)(F)F)CC[C@@H]12 [Dutasteride]	0.932 ± 0.011
Clc1cccc(Cl)c1NC1=NCCN1 [Clonidine HCl]	0.953 ± 0.019
CO[C@H]1/C=C/O[C@@]2(C)Oc3c(C)c(O)c4c(O)c(c5c(nc6cc(C)ccn65)c4c3C2=O)NC(=O)/C(C)=C\C=C\[C@H](C)[C@H](O)[C@@H](C)[C@@H](O)[C@@H](C)[C@H](OC(C)=O)[C@@H]1C [Rifaximin]	0.892 ± 0.04
Cc1ccc([C@@H]2O[C@H](CO)[C@@H](O)[C@H](O)[C@H]2O)cc1Cc1ccc(-c2ccc(F)cc2)s1 [Canagliflozin]	1.01 ± 0.067
CC(C)(C)c1cc(C(C)(C)C)c(NC(=O)c2c[nH]c3ccccc3c2=O)cc1O [Ivacaftor (VX-770)]	0.956 ± 0.018
CC(C)NC[C@@H](C(=O)N1CCN(c2ncnc3c2[C@H](C)C[C@H]3O)CC1)c1ccc(Cl)cc1	1 ± 0.048
COc1cccc(C=NCCN=Cc2cccc(OC)c2[O-])c1[O-].[Cl-].[Mn+3]	0.927 ± 0.024
COCC(=O)NC/C=C/c1ccc2ncnc(Nc3ccc(Oc4ccc(C)nc4)c(C)c3)c2c1	0.962 ± 0.043
Oc1cc2c(cc1O)C(c1ccccc1)CNCC2 (stereo not given)	0.996 ± 0.1
Cn1c(=O)c2c(ncn2CC2OCCO2)n(C)c1=O [Doxofylline]	1.01 ± 0.017
C=CC(=O)Nc1cccc(Sc2nc(Nc3ccc(N4CCN(C)CC4)cc3)ncc2Cl)c1	0.854 ± 0.049
CCCCNc1ncc(C(=O)NCc2ccc(-n3ccnc3)cc2)c(NC2CCC(O)CC2)n1 (stereo not given)	0.813 ± 0.021
CCOC(=O)[C@H]1O[C@@H]1C(=O)N[C@@H](CC(C)C)C(=O)NCCC(C)C [Aloxistatin]	1.02 ± 0.021
COc1cc(Nc2c(C#N)cnc3cc(OCCCN4CCN(C)CC4)c(OC)cc23)c(Cl)cc1Cl [Bosutinib (SKI-606)]	0.84 ± 0.036
CCC1(c2ccccc2)C(=O)NCNC1=O [Primidone]	1.06 ± 0.032
CCCCc1oc2ccc(NS(C)(=O)=O)cc2c1C(=O)c1ccc(OCCCN(CCCC)CCCC)cc1 [Dronedarone HCl]	0.987 ± 0.037
O=C(Nc1cccnc1)c1cc(-c2ccnc(F)c2)ccc1OCc1ccccc1	0.942 ± 0.029
O=C1CC[C@@H](C(=O)N2CSC[C@H]2C(=O)O)N1 [Pidotimod]	0.976 ± 0.034
c1ccc(-c2ccc(C(c3ccccc3)n3ccnc3)cc2)cc1 (stereo not given) [Bifonazole]	0.985 ± 0.018
Oc1c(Cl)cc(Cl)c2cccnc12 [Chloroxine]	0.968 ± 0.04
COc1ccc(Cl)cc1NC(=O)Nc1cc(C)nc2ccccc12	1.01 ± 0.023
